Data as given in ChEMBL document CHEMBL4888484, “Replenishing the malaria drug discovery pipeline: Screening and hit evaluation of the MMV Hit Generation Library 1 (HGL1) against asexual blood stage Plasmodium falciparum ,using a nano luciferase reporter read-out” (2022).
Where “and” joins values, the source holds several entries; their conditions need not be identical. Equal values may be shown once. In all, about 150,000 compounds went through this assay and about 540 (0.36%) showed an effect of 50% or more. The list shows a part of the results.

System: Plasmodium falciparum
Assay: Primary screen in NF54 nanoGlo assay, in single point, at 2uM, 72h; a lower Z score goes with more inhibition
Format: functional, Erythrocyte
Conditions: timepoint 72 hour

Structure (SMILES) | % Inhibition [%] | Z score | % Inhibition (2 µM)
Cc1cncc(CN2C(=O)CC3(CCC3)C2=O)c1 | -8 | 1.3 | –
CC[C@H](NC(=O)c1ncncc1Cl)c1ccccc1OC(F)F | -4 | 0.72 | –
O=C(Nc1sc2c(c1C(=O)N1CCOCC1)CCCCC2)c1ccccc1Cl | -1 | 0.07 | –
CCCOCC(=O)N1CCN(Cc2cc(C)cc(C)c2)C(=O)C1 | -7 | 0.87 | –
Cc1cc(C)c(CN2CCN(C)CC2)cc1CN(C)Cc1nc2ccc(F)cc2[nH]1 | -1 | 0.14 | –
COc1ccccc1/C=C/CN1C[C@@H]2C[C@H]1C(=O)N2c1ccccc1Cl | 7 | -0.96 | –
Cc1nc([C@H](C)NS(=O)(=O)c2ccc(-c3c(C)noc3C)s2)n[nH]1 | 2 | -0.35 | –
Cc1nn(CC(=O)N(CC(F)(F)F)c2ccccn2)c(C)c1Cl | -6 | 1.12 | –
CCn1nc(CC(C)C)cc1C(=O)N1CCC(c2ccccc2OC)CC1 | 0 | -0.05 | –
Cc1cc(=O)[nH]c(N2CCC[C@H](NC(=O)c3cccnc3C)C2)n1 | -13 | 1.33 | –
Cc1nc(CN(C)C(=O)C(=O)Nc2cc(C(F)(F)F)no2)cs1 | -3 | 0.41 | –
CCC(=O)Nc1ccc2c(c1)c(=O)n(-c1ccccc1)n2CC(=O)Nc1cccc(OC)c1 | -5 | 0.59 | –
O=C1CN(c2cccc3ccccc23)C(=O)CN1c1cccc2ccccc12 | -3 | 0.44 | –
CC(C)c1nc(C2CCCCCN2C(=O)C2CCOC2C(C)C)no1 (centres undefined) | -11 | 1.6 | –
CC(C)C[C@H](C)N(C)C(=O)c1ccc(=O)n(C)c1 | -4 | 0.4 | –
CCNC(=O)[C@H](C)Nc1nccc(OC)n1 | 9 | -1.68 | –
CCC(=O)N(C)c1nc2ccccc2n(CC(=O)Nc2ccc3c(c2)OCO3)c1=O | 3 | -0.45 | –
CN1CC2(CN(C(=O)c3csc4ccccc34)C2)OC1=O | -2 | 0.34 | –
Cn1ncc(NC(=O)Cn2ncc3cccnc32)n1 | -1 | 0.16 | –
COCCC(=O)Nc1cc(Cl)cc(Br)c1O | -14 | 1.15 | –
COc1ccccc1N1CC[C@H](C)N(Cc2cc(F)cc3c2OCOC3)CC1 | -3 | 0.43 | –
COCCN(CC1CC1)C(=O)c1ccc2[nH]c(CO)nc2c1 | 3 | -0.38 | –

Structure (SMILES) | % Inhibition [%] | Z score | % Inhibition (2 µM)
CN(C)CCn1ccnc1C1CCN(C(=O)c2cccc(N(C)C)c2)CC1 | 7 | -0.84 | –
O=C(CCn1ccnn1)N(c1ccccc1)C1CCCCC1 | -8 | 0.94 | –
CCOC(=O)C(=O)Nc1c2c(cn1-c1ccccc1)CS(=O)(=O)C2 | 9 | -1.09 | –
Nc1ncc(Br)c(-c2cnc(-c3ccc(F)cc3)s2)n1 | -15 | 2.21 | –
Cc1cc(NCc2csc(C3CC3)n2)no1 | -11 | 1.08 | –
CC(=O)N1CCC(COS(=O)(=O)c2ccc(C)cc2)CC1 | -4 | 0.68 | –
Fc1cc(Br)cc([C@H](CC2CC2)NCc2ncc[nH]2)c1 | -1 | 0.16 | –
COc1cc(OC)cc(N(C)C(=O)Cc2c(C)noc2C)c1 | 3 | -0.55 | –
CCCN1CCN(S(=O)(=O)c2ccc3c(c2)N(Cc2noc(C4CCC4)n2)C(=O)CO3)CC1 | -9 | 1.07 | –
O=C(N[C@H]1CCS(=O)(=O)C1)c1cc(OCc2ccccc2)ncn1 | -8 | 1.52 | –
COc1ccc(Cn2ncc(C)c2NC(=O)c2ncc(F)cc2F)cc1OC | -9 | 1.24 | –
COc1ccc(C(=O)N(CCN2CCOCC2)CC(=O)N2N=C(c3ccc(F)cc3)C[C@H]2c2ccc(F)cc2)cc1 | 1 | -0.12 | –
COCCO[C@H]1COCCN(C(=O)c2ccccc2)C1 | 17 | -2.02 | –
Cc1cn(CCCC(=O)O)nc1C(F)(F)F | 28 | -3.14 | –
Cc1nc(N)[nH]c(=O)c1CC(=O)N1c2ccccc2C[C@@H]1C | -10 | 0.96 | –
COc1ccc(CNC(=O)c2ccc(-n3nc(C)c4c3CCCC4=O)cc2)cc1 | -10 | 1.31 | –
CCCN(CCOC)C(=O)c1ccc(C(=O)O)s1 | -7 | 1.29 | –
O=C(NC(CN1C(=O)COC1=O)c1ccccc1)C1COc2ccccc2O1 (centres undefined) | -11 | 1.63 | –
Cc1nc(C2CC2)oc1C(=O)N1CCc2cc(C#N)ccc21 | -1 | 0.24 | –
COc1cccc(-c2cc3c(n2-c2ccc(C(=O)NCCc4ccco4)cc2)CCCCC3)c1 | 2 | -0.19 | –
CCN1CCC[C@@H]1CN(C)CC(=O)Nc1cc(C)nn1-c1nc(C)cc(C)n1 | -9 | 0.91 | –
COC[C@H](O)CNC(=O)c1cccn1C1CC1 | 35 | -1.34 | –

Structure (SMILES) | % Inhibition [%] | Z score | % Inhibition (2 µM)
Cc1cncc(-c2cc(N3CCN(C)CC3)nc(N)n2)c1 | -5 | 0.94 | –
O=C1C[C@H](c2nc(-c3cccnn3)no2)CN1C1CCCC1 | -18 | 3.14 | –
Cc1nccc(C(=O)Nc2nc3cc(F)c(F)cc3s2)n1 | -8 | 1.15 | –
CC[C@@](C)(CCCNC(=O)c1cccc(OCC(N)=O)c1)C1OCCO1 | 0 | -0.03 | –
O=C(CC1=CCCCC1)Nc1cc(C(F)(F)F)n[nH]1 | 7 | -1.26 | –
Cc1ccc(S(=O)(=O)c2cn(CC(=O)Nc3ccccc3C)c3nc(C)ccc3c2=O)cc1 | 8 | -1.49 | –
COc1ccc([C@@H](C)NC(=O)NC2CCn3ccnc32)c(OC)c1 (some centres undefined) | 2 | -0.36 | –
CC(=O)N1CCC(CNC(Cc2ccccc2)C(C)NC(=O)OC(C)(C)C)CC1 (centres undefined) | 13 | -2.02 | –
Cn1nccc1CN1CCC[C@@H]1CC(=O)c1ccc(F)cc1 | -13 | 1.87 | –
Cc1cc(CNS(=O)(=O)CC2CCC(C(F)(F)F)O2)on1 (centres undefined) | 0 | 0.01 | –
CN(Cc1cscn1)C(=O)C1(Cc2ccccc2)CCC1 | -3 | 0.27 | –
Cc1c(Cl)ccc(NC(=O)NCCN(C)S(C)(=O)=O)c1Cl | -8 | 1.35 | –
CC(C)(C#N)CCCNc1cccc(CO)c1 | -10 | 1.53 | –
CCOc1nc(C)nc2cc(-c3ccccc3)n(Cc3ccccc3)c12 | 36 | -1.29 | –
COc1cccc(CN2C(=O)CCCC[C@H]2C(=O)N2CCN(c3ncccn3)CC2)c1 | 5 | -0.6 | –
Cc1nnc(CN[C@@H](Cc2ccccc2)C(C)(C)C)n1C | -6 | 0.58 | –
Cc1cc(C)n(CC2(CNC(=O)Nc3ccc4c(c3)C[C@H](C)O4)CC2)n1 | 4 | -0.58 | –
Cc1n[nH]c(C)c1CNC[C@H](C)Cn1cccn1 | -12 | 1.82 | –
Cc1ccnc(NS(=O)(=O)c2ccc(NC(=O)c3cc(C)on3)cc2)n1 | -10 | 1.88 | –
CC(=O)NC1(c2nccs2)CCCC1 | -11 | 1.47 | –
CC(=O)N[C@H]1[C@H](Nc2ncnc3sc(C)c(C)c23)[C@@H]2CCO[C@@H]21 | -4 | 0.78 | –
Cc1ncc(CN2CCN(C)CC2)c2cc(C(=O)c3ccc4c(c3)OCCO4)oc12 | – | – | -3% and 6%

Structure (SMILES) | % Inhibition [%] | Z score | % Inhibition (2 µM)
Cc1cc(C(=O)N[C@H]2CC[C@H](n3cnnc3)CC2)[nH]n1 | -10 | 1.83 | –
O=C(NC1CCCCCC1)c1cc2n(n1)CCCN(Cc1ccc(Cl)cc1)C2=O | 8 | -1.6 | –
CC(C)Cn1ncnc1COC(=O)c1cccc2cc[nH]c12 | -1 | 0.06 | –
CC[C@](C)(O)CNC(=O)C(=O)Nc1cc(F)cc(F)c1 | -7 | 0.8 | –
CC(=O)N1CCN(C(=O)c2ccc(-c3ccc(F)cc3)n2C)CC1 | -22 | 2.81 | –
CCCCOc1ccc(C)cc1S(=O)(=O)n1cncn1 | -2 | 0.46 | –
CCN1CC(=O)N[C@H]2CN(C(=O)c3cc4ncccn4n3)CC[C@@H]2OCc2cccc(c2)Oc2cc(OC(C)C)cc(c2)C1=O | -2 | 0.4 | –
CCCC1CCCCC1CNC(=O)N1CC(=O)N(C)C1 (centres undefined) | -16 | 1.39 | –
CCC(CC)(CO)C(=O)N1CCC(c2nc(C)no2)CC1 | -7 | 1.17 | –
CC[C@@H](CO)NC(=O)c1ccc(F)cc1C | -7 | 0.65 | –
O=C(Nc1cccc(-c2ccc3c(c2)OCCO3)n1)C1C2CCCC21 (centres undefined) | -1 | 0.16 | –
COc1ccc(CNC(=O)CN2CC[C@H](C)c3cccc(OC)c32)cc1 | -4 | 0.71 | –
Cc1ccc(CN(C(=O)COc2ccc(Br)cc2)c2ccccn2)o1 | 13 | -1.55 | –
Cc1nnc([C@@H]2CCCN2Cc2c(F)cccc2Br)o1 | 9 | -1.1 | –
CCn1cc(S(=O)(=O)N[C@H]2CC(=O)N(C(C)C)C2)cn1 | -12 | 2.21 | –
Cc1sc(C(N)=O)cc1NC(=O)c1ccc(CNC(=O)c2cccs2)cc1 | -14 | 2.08 | –
Cc1n[nH]c(C)c1CC(=O)NC1(C(=O)O)CCC1 | 3 | -0.25 | –
CS(=O)(=O)CCn1cnc(-c2ccccc2)c1-c1nc2ccccc2[nH]1 | -13 | 1.59 | –
Cc1c(C(=O)N2CCC(C)CC2)c(S(=O)(=O)N2CCc3ccccc32)c(C)n1C | -12 | 2.26 | –
